# Laboratory results as given in patent US20260193238A1, “PHARMACEUTICAL COMPOUNDS AS PARP7 AND/OR PARP1 INHIBITORS” (Duke Street Bio Limited, priority 2022, published 2026).
# pIC50: −log10 of the molar value.
# Target: T1, PARP7 (amino acids 456-657) (Homo sapiens, UniProt Q7Z3E1)
# T1 sequence (Q7Z3E1 456-657): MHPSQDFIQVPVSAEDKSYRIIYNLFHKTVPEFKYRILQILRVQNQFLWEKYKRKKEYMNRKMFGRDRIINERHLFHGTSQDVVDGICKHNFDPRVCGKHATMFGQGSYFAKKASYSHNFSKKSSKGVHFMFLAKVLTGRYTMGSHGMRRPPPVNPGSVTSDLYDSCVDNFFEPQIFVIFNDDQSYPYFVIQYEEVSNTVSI
# Assay: PARP7 biochemical DELFIA assay (auto-MARylation)
# Conditions: Table 1
row,Structure (SMILES),pIC50
1,O=C(CN1CCC(c2cc(C(F)(F)F)c(=O)[nH]n2)C1)N1CCN(c2ncc(C(F)(F)F)cn2)CC1 (racemic) [Compound 19rac],7.00 to 8.00
2,O=C(CCN1CCCC(c2cc(C(F)(F)F)c(=O)[nH]n2)C1)N1CCN(c2cnc(C(F)(F)F)cn2)CC1 (racemic) [Compound 30rac],6.00 to 7.00

# The next lines start with the values.
row,pIC50,Structure (SMILES)
1,6.00 to 7.00,"CCc1cc(C2CCCN(CCC(=O)N3CCN(c4ncc(C(F)(F)F)cn4)CC3)C2)n[nH]c1=O (single isomer, unassigned) [Compound 6a, 4-ethyl-6-(1-(3-oxo-3-(4-(5-(trifluoromethyl)pyrimidin-2-yl)piperazin-1-yl)propyl)piperidin-3-yl)pyridazin-3(2H)-one]"
2,7.00 to 8.00,O=C(CCN1CCCCC1c1cc(C(F)(F)F)c(=O)[nH]n1)N1CCN(c2ncc(C(F)(F)F)cn2)CC1 (racemic) [Compound 21rac]
3,6.00 to 7.00,O=C(CCN1CCCC(c2cc(C(F)(F)F)c(=O)[nH]n2)C1)N1CCN(c2ncc(Cl)cn2)CC1 (racemic) [Compound 20rac]
4,6.00 to 7.00,"O=C(CCN1CCCC(c2cc(C(F)(F)F)c(=O)[nH]n2)C1)N1CCN(c2ncc(C(F)(F)F)cn2)CC1 (single isomer, unassigned) [Compound 1b, 6-(1-(3-oxo-3-(4-(5-(trifluoromethyl)pyrimidin-2-yl)piperazin-1-yl)propyl)piperidin-3-yl)-4-(trifluoromethyl)pyridazin-3(2H)-one]"
5,5.00 to 6.00,"O=C(CCN1CCCC(c2cc(C(F)(F)F)c(=O)[nH]n2)C1)N1CCN(c2ncc(C(F)(F)F)cn2)CC1 (single isomer, unassigned) [Compound 1a, 6-(1-(3-oxo-3-(4-(5-(trifluoromethyl)pyrimidin-2-yl)piperazin-1-yl)propyl)piperidin-3-yl)-4-(trifluoromethyl)pyridazin-3(2H)-one]"
6,5.00 to 6.00,"O=C(CCN1CCCC(c2cc(C(F)(F)F)c(=O)[nH]n2)C1)N1CCN(c2ncc(C(F)(F)F)s2)CC1 (single isomer, unassigned) [Compound 27a]"
7,7.00 to 8.00,"O=C(CN1CCCC(c2cc(C(F)(F)F)c(=O)[nH]n2)C1)NC1CCN(c2ncc(C(F)(F)F)cn2)CC1 (single isomer, unassigned) [Compound 2b]"
8,5.00 to 6.00,"CNC(=O)c1ccc(N2CCN(C(=O)CCN3CCCC(c4cc(C(F)(F)F)c(=O)[nH]n4)C3)CC2)nc1 (single isomer, unassigned) [Compound 28a]"

# Same assay, conditions: Table 1A
row,Structure (SMILES),pIC50
1,"O=C(CN1CCCC1c1c[nH]c(=O)c(C(F)(F)F)n1)N1CCN(c2ncc(C(F)(F)F)cn2)CC1 (single isomer, unassigned) [Compound 84b, 5-(1-(2-oxo-2-(4-(5-(trifluoromethyl)pyrimidin-2-yl)piperazin-1-yl)ethyl)pyrrolidin-2-yl)-3-(trifluoromethyl)pyrazin-2(1H)-one]",6.00 to 7.00
2,"O=C(CN1CCCC1c1cc(C(F)(F)F)c(=O)[nH]n1)N1CCN(c2ccc(C(F)F)cn2)CC1 (single isomer, unassigned) [Compound 126b]",6.00 to 7.00
3,"N#Cc1ccc(N2CCN(C(=O)CN3CCCC3c3cc(C(F)(F)F)c(=O)[nH]n3)CC2)cc1 (single isomer, unassigned) [Compound 71b]",7.00 to 8.00
4,O=C(CN1CCC(c2n[nH]c(=O)c3ccccc23)CC1)N1CCN(c2ncc(C(F)(F)F)cn2)CC1 [Compound 51],5.00 to 6.00
5,"O=C(CN1CCCC1c1cc(C(F)(F)F)c(=O)[nH]n1)N1CCC(c2ncc(C(F)(F)F)cn2)CC1 (single isomer, unassigned) [Compound 70a]",7.00 to 8.00
6,"O=C(CN1Cc2ccccc2C1c1cc(C(F)(F)F)c(=O)[nH]n1)N1CCN(c2ncc(C(F)(F)F)cn2)CC1 (single isomer, unassigned) [Compound 104a, 6-(2-(2-oxo-2-(4-(5-(trifluoromethyl)pyrimidin-2-yl)piperazin-1-yl)ethyl)isoindolin-1-yl)-4-(trifluoromethyl)pyridazin-3(2H)-one]",≥ 8.00
7,"N#Cc1ccc2oc(N3CCN(C(=O)CN4CCCC4c4cc(C(F)(F)F)c(=O)[nH]n4)CC3)nc2c1 (single isomer, unassigned) [Compound 100a]",≥ 8.00
8,"O=C(CN1CCCC1c1cc(C(F)(F)F)c(=O)[nH]n1)N1CCN(c2ncc(F)cc2C(F)(F)F)CC1 (single isomer, unassigned) [Compound 120a]",7.00 to 8.00
9,"N#Cc1ccc2nc(N3CCN(C(=O)CN4CCCC4c4cc(C(F)(F)F)c(=O)[nH]n4)CC3)oc2c1 (single isomer, unassigned) [Compound 96a]",6.00 to 7.00
10,"N#Cc1cnc(N2CCN(C(=O)CN3CCCC3c3c[nH]c(=O)c(C(F)(F)F)c3)CC2)nc1 (single isomer, unassigned) [Compound 76b]",≥ 8.00
11,"N#Cc1cc(C2CCCN2CC(=O)N2CCN(c3nc4cc(F)ccc4o3)CC2)n[nH]c1=O (single isomer, unassigned) [Compound 149b]",6.00 to 7.00
12,"O=C(CN1CCCC1c1cc(C(F)(F)F)c(=O)[nH]n1)N1CCN(c2ccc(C(F)(F)F)cn2)CC1 (single isomer, unassigned) [Compound 42a]",6.00 to 7.00
13,"O=C(CN1CCCC1c1cc(C(F)(F)F)c(=O)[nH]n1)N1CCN(c2ncc(F)cc2F)CC1 (single isomer, unassigned) [Compound 83a]",≥ 8.00
14,"Cn1c(N2CCN(C(=O)CN3CCCC3c3cc(C(F)(F)F)c(=O)[nH]n3)CC2)nc2ccccc21 (single isomer, unassigned) [Compound 97a]",≥ 8.00
15,"O=C(CN1CCCC1c1cc(C(F)(F)F)c(=O)[nH]n1)C1CCN(c2ncc(C(F)(F)F)cn2)CC1 (single isomer, unassigned) [Compound 75b]",5.00 to 6.00
16,CC1(C)C[C@H](c2cc(C(F)(F)F)c(=O)[nH]n2)N(CC(=O)N2CCN(c3ncc(C(F)(F)F)cn3)CC2)C1 [Compound 94a],7.00 to 8.00
17,"N#Cc1cnc(N2CCN(C(=O)CN3CCCC3c3c[nH]c(=O)c(C(F)(F)F)c3)CC2)nc1 (single isomer, unassigned) [Compound 76a]",6.00 to 7.00
18,"O=C(CN1CCCC1c1c[nH]c(=O)c(C(F)(F)F)c1)N1CCN(c2ncc(C(F)(F)F)cn2)CC1 (single isomer, unassigned) [Compound 60b, 5-(1-(2-oxo-2-(4-(5-(trifluoromethyl)pyrimidin-2-yl)piperazin-1-yl)ethyl)pyrrolidin-2-yl)-3-(trifluoromethyl)pyridin-2(1H)-one]",7.00 to 8.00
19,"O=C(CN1CCCC1c1cc(C(F)(F)F)c(=O)[nH]n1)N1CCN(c2nc3ccc(Cl)cc3o2)CC1 (single isomer, unassigned) [Compound 85a]",≥ 8.00
20,"N#Cc1ccc2nc(N3CCN(C(=O)CN4CCCC4c4cc(C#N)c(=O)[nH]n4)CC3)oc2c1 (single isomer, unassigned) [Compound 145b]",< 5.00

# Results, then the compound that gave them:
row,pIC50,Structure (SMILES)
1,5.00 to 6.00,"O=C(CN1CCCC1c1cc(C(F)(F)F)c(=O)[nH]n1)N1CCN(c2ncc(F)cn2)CC1 (single isomer, unassigned) [Compound 43b]"
2,≥ 8.00,"O=C(CN1CCCC1c1cc(C(F)(F)F)c(=O)[nH]n1)N1CCN(c2ccc(F)cn2)CC1 (single isomer, unassigned) [Compound 46a]"
3,≥ 8.00,"O=C(CN1CCCC1c1cc(C(F)(F)F)c(=O)[nH]n1)N1CCN(c2ncc(OC(F)F)cn2)CC1 (single isomer, unassigned) [Compound 118a]"
4,≥ 8.00,"CNC(=O)c1cnc(N2CCN(C(=O)CN3CCCC3c3cc(C(F)(F)F)c(=O)[nH]n3)CC2)cn1 (single isomer, unassigned) [Compound 54a]"
5,≥ 8.00,"O=C(CN1CCCC1c1cc(C(F)(F)F)c(=O)[nH]n1)N1CCN(c2ncc(Cl)cc2Cl)CC1 (single isomer, unassigned) [Compound 125a]"
6,≥ 8.00,"COC1CC(c2cc(C(F)(F)F)c(=O)[nH]n2)N(CC(=O)N2CCN(c3ncc(C(F)(F)F)cn3)CC2)C1 (single isomer, unassigned) [Compound 138trans1, 6-(4-methoxy-1-(2-oxo-2-(4-(5-(trifluoromethyl)pyrimidin-2-yl)piperazin-1-yl)ethyl)pyrrolidin-2-yl)-4-(trifluoromethyl)pyridazin-3(2H)-one]"
7,≥ 8.00,"CC(C)(C)c1cnc(N2CCN(C(=O)CN3CCCC3c3cc(C(F)(F)F)c(=O)[nH]n3)CC2)nc1 (single isomer, unassigned) [Compound 82a]"
8,≥ 8.00,"O=C(CN1CCCC1c1cc(C(F)(F)F)c(=O)[nH]n1)N1CCN(c2nc3ccccn3n2)CC1 (single isomer, unassigned) [Compound 117a]"
9,6.00 to 7.00,"O=C(CN1CC(F)(F)C[C@H]1c1cc(C(F)(F)F)c(=O)[nH]n1)N1CCN(c2ncc(C(F)(F)F)cn2)CC1 [Compound 91b, (S)-6-(4,4-difluoro-1-(2-oxo-2-(4-(5-(trifluoromethyl)pyrimidin-2-yl)piperazin-1-yl)ethyl)pyrrolidin-2-yl)-4-(trifluoromethyl)pyridazin-3(2H)-one]"
10,6.00 to 7.00,"O=C(CN1CCCCC1c1cc(C(F)(F)F)c(=O)[nH]n1)N1CCN(c2ncc(C(F)(F)F)cn2)CC1 (single isomer, unassigned) [Compound 66a]"
11,5.00 to 6.00,"O=C(CN1CCCC1c1cc(C(F)(F)F)c(=O)[nH]n1)N1CCN(c2ncc(C3CC3)cn2)CC1 (single isomer, unassigned) [Compound 69b]"
12,5.00 to 6.00,"COC1CC(c2cc(C(F)(F)F)c(=O)[nH]n2)N(CC(=O)N2CCN(c3ncc(C(F)(F)F)cn3)CC2)C1 (single isomer, unassigned) [Compound 138cis2, 6-(4-methoxy-1-(2-oxo-2-(4-(5-(trifluoromethyl)pyrimidin-2-yl)piperazin-1-yl)ethyl)pyrrolidin-2-yl)-4-(trifluoromethyl)pyridazin-3(2H)-one]"
13,5.00 to 6.00,"COC1CC(c2cc(C(F)(F)F)c(=O)[nH]n2)N(CC(=O)N2CCN(c3ncc(C(F)(F)F)cn3)CC2)C1 (single isomer, unassigned) [Compound 138trans2, 6-(4-methoxy-1-(2-oxo-2-(4-(5-(trifluoromethyl)pyrimidin-2-yl)piperazin-1-yl)ethyl)pyrrolidin-2-yl)-4-(trifluoromethyl)pyridazin-3(2H)-one]"
